# Test results from the supplement of paper PMC12217912.
# The list shows a part of the results. Sequences were assembled here from the parent chain. Values near 0.05 are background.
# B1: TEV protease; numbered along this chain (parent)
# chain: MGESLFKGPRDYNPISSSICHLTNESDGHTTSLYGIGFGPFIITNKHLFRRNNGTLVVQSLHGVFKVKDTTTLQQHLVDGRDMIIIRMPKDFPPFPQKLKFREPQREERICLVTTNFQTKSMSSMVSDTSCTFPSGDGIFWKHWIQTKDGQCGSPLVSTRDGFIVGIHSASNFTNTNNYFTSVPKNFMELLTNQEAQQWVSGWRLNADSVLWGGHKVFMVKPEEPFQPVKEATQL
# Variants of: B1
# Assay: raw area under fraction-flipped curve 0-4 h after induction (AUC4h, not background-subtracted), DNA-recorder readout of cleavage of the substrate (dimensionless); higher = more cleavage of the substrate by the protease variant
# Details: temperature: 34 °C; time window: 0-4 h after rhamnose induction
# Experimental: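 In vivo DNA recorder in E. coli TOP10(DE3) ΔrhaA at 34 °C. Each TEVp single-site mutant (parent TEVp 0) is paired with a single-site variant of the 7-mer TEVs (canonical ENLYFQ|S). The substrate sits between flexible linkers in a Bxb1-sfGFP-TEVs-SsrA fusion, so cleavage stabilises Bxb1 and speeds flipping of a recombination array, read by NGS. The value is the raw area under the fraction-flipped curve over 0-4 h after rhamnose induction (AUC4h), with ≥20 reads per time point. It is not background-subtracted; inactive controls average about 0.047.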
# 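Note: Bxb1 expression induced with 0.2% (w/v) L-rhamnose at OD600 near 0.5, cultures sampled hourly, flipped fraction per protease–substrate barcode pair counted by paired-end Illumina sequencing.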
variant,measurement,value
MGESLVKGPRDYNPISSSICHLTNESDGHTTSLYGIGFGPFIITNKHLFRRNNGTLVVQSLHGVFKVKDTTTLQQHLVDGRDMIIIRMPKDFPPFPQKLKFREPQREERICLVTTNFQTKSMSSMVSDTSCTFPSGDGIFWKHWIQTKDGQCGSPLVSTRDGFIVGIHSASNFTNTNNYFTSVPKNFMELLTNQEAQQWVSGWRLNADSVLWGGHKVFMVKPEEPFQPVKEATQL [F6V],area with substrate ECLYFQS,0.093
same,area with substrate EFLYFQS,0.166
same,area with substrate EHLYFQS,0.143
same,area with substrate EILYFQS,0.139
same,area with substrate EKLYFQS,0.105
same,area with substrate ELLYFQS,0.0823
same,area with substrate EMLYFQS,0.154
same,area with substrate EPLYFQS,0.155
same,area with substrate EQLYFQS,0.112
same,area with substrate ESLYFQS,0.137
same,area with substrate EVLYFQS,0.101
MGESLQKGPRDYNPISSSICHLTNESDGHTTSLYGIGFGPFIITNKHLFRRNNGTLVVQSLHGVFKVKDTTTLQQHLVDGRDMIIIRMPKDFPPFPQKLKFREPQREERICLVTTNFQTKSMSSMVSDTSCTFPSGDGIFWKHWIQTKDGQCGSPLVSTRDGFIVGIHSASNFTNTNNYFTSVPKNFMELLTNQEAQQWVSGWRLNADSVLWGGHKVFMVKPEEPFQPVKEATQL [F6Q],area with substrate ECLYFQS,0.0887
same,area with substrate EDLYFQS,0.0963
same,area with substrate EHLYFQS,0.0968
same,area with substrate EQLYFQS,0.107
same,area with substrate ERLYFQS,0.0946
same,area with substrate ESLYFQS,0.104
same,area with substrate ETLYFQS,0.108
same,area with substrate EVLYFQS,0.0803
same,area with substrate EYLYFQS,0.116
MGESLMKGPRDYNPISSSICHLTNESDGHTTSLYGIGFGPFIITNKHLFRRNNGTLVVQSLHGVFKVKDTTTLQQHLVDGRDMIIIRMPKDFPPFPQKLKFREPQREERICLVTTNFQTKSMSSMVSDTSCTFPSGDGIFWKHWIQTKDGQCGSPLVSTRDGFIVGIHSASNFTNTNNYFTSVPKNFMELLTNQEAQQWVSGWRLNADSVLWGGHKVFMVKPEEPFQPVKEATQL [F6M],area with substrate ECLYFQS,0.106
same,area with substrate EELYFQS,0.105
same,area with substrate EGLYFQS,0.0949
same,area with substrate EHLYFQS,0.119
same,area with substrate EILYFQS,0.101
same,area with substrate ELLYFQS,0.0974
same,area with substrate EPLYFQS,0.132
same,area with substrate ESLYFQS,0.11
same,area with substrate EVLYFQS,0.0959
MGESLYKGPRDYNPISSSICHLTNESDGHTTSLYGIGFGPFIITNKHLFRRNNGTLVVQSLHGVFKVKDTTTLQQHLVDGRDMIIIRMPKDFPPFPQKLKFREPQREERICLVTTNFQTKSMSSMVSDTSCTFPSGDGIFWKHWIQTKDGQCGSPLVSTRDGFIVGIHSASNFTNTNNYFTSVPKNFMELLTNQEAQQWVSGWRLNADSVLWGGHKVFMVKPEEPFQPVKEATQL [F6Y],area with substrate ECLYFQS,0.0757
same,area with substrate EKLYFQS,0.039
same,area with substrate ERLYFQS,0.0608
same,area with substrate ESLYFQS,0.0517
same,area with substrate EWLYFQS,0.0624
MGESLFKGKRDYNPISSSICHLTNESDGHTTSLYGIGFGPFIITNKHLFRRNNGTLVVQSLHGVFKVKDTTTLQQHLVDGRDMIIIRMPKDFPPFPQKLKFREPQREERICLVTTNFQTKSMSSMVSDTSCTFPSGDGIFWKHWIQTKDGQCGSPLVSTRDGFIVGIHSASNFTNTNNYFTSVPKNFMELLTNQEAQQWVSGWRLNADSVLWGGHKVFMVKPEEPFQPVKEATQL [P9K],area with substrate ECLYFQS,0.128
same,area with substrate EELYFQS,0.11
same,area with substrate EFLYFQS,0.125
same,area with substrate EILYFQS,0.0842
same,area with substrate EKLYFQS,0.126
same,area with substrate EQLYFQS,0.0915
same,area with substrate ERLYFQS,0.0694
same,area with substrate ESLYFQS,0.13
same,area with substrate EVLYFQS,0.0845
same,area with substrate EYLYFQS,0.0802
MGESLFKGPRDGNPISSSICHLTNESDGHTTSLYGIGFGPFIITNKHLFRRNNGTLVVQSLHGVFKVKDTTTLQQHLVDGRDMIIIRMPKDFPPFPQKLKFREPQREERICLVTTNFQTKSMSSMVSDTSCTFPSGDGIFWKHWIQTKDGQCGSPLVSTRDGFIVGIHSASNFTNTNNYFTSVPKNFMELLTNQEAQQWVSGWRLNADSVLWGGHKVFMVKPEEPFQPVKEATQL [Y12G],area with substrate ECLYFQS,0.115
same,area with substrate EDLYFQS,0.118
same,area with substrate EELYFQS,0.138
same,area with substrate EFLYFQS,0.0835
same,area with substrate EHLYFQS,0.108
same,area with substrate EILYFQS,0.102
same,area with substrate EKLYFQS,0.113
same,area with substrate ELLYFQS,0.0758
same,area with substrate EMLYFQS,0.112
same,area with substrate EPLYFQS,0.118
same,area with substrate EQLYFQS,0.119
same,area with substrate ERLYFQS,0.103
same,area with substrate ESLYFQS,0.0519
same,area with substrate ETLYFQS,0.14
same,area with substrate EVLYFQS,0.103
MGESLFKGPRDYYPISSSICHLTNESDGHTTSLYGIGFGPFIITNKHLFRRNNGTLVVQSLHGVFKVKDTTTLQQHLVDGRDMIIIRMPKDFPPFPQKLKFREPQREERICLVTTNFQTKSMSSMVSDTSCTFPSGDGIFWKHWIQTKDGQCGSPLVSTRDGFIVGIHSASNFTNTNNYFTSVPKNFMELLTNQEAQQWVSGWRLNADSVLWGGHKVFMVKPEEPFQPVKEATQL [N13Y],area with substrate ECLYFQS,0.0892
same,area with substrate EDLYFQS,0.124
same,area with substrate EELYFQS,0.112
same,area with substrate EGLYFQS,0.0756
same,area with substrate EHLYFQS,0.119
same,area with substrate EILYFQS,0.0739
same,area with substrate EKLYFQS,0.101
same,area with substrate EMLYFQS,0.157
same,area with substrate EPLYFQS,0.107
same,area with substrate EQLYFQS,0.121
same,area with substrate ERLYFQS,0.0956
same,area with substrate ESLYFQS,0.103
same,area with substrate EVLYFQS,0.101
same,area with substrate EYLYFQS,0.118
MGESLFKGPRDYNPISSSICHLTNESDGHTTSLYGIGFGPFIITNKHLFRRNNGTLVVQSLHGVFKVKDTTTLQQHLVDGRDMIIIRMPKDFPPFPQKLKFREPQREERICLVTTNFQTKSMSSMVSDTSCTFPSGDGPFWKHWIQTKDGQCGSPLVSTRDGFIVGIHSASNFTNTNNYFTSVPKNFMELLTNQEAQQWVSGWRLNADSVLWGGHKVFMVKPEEPFQPVKEATQL [I139P],area with substrate EALYFQS,0.108
same,area with substrate EMLYFQS,0.172
same,area with substrate EPLYFQS,0.128
same,area with substrate EQLYFQS,0.116
same,area with substrate ESLYFQS,0.108
same,area with substrate EVLYFQS,0.111
same,area with substrate EWLYFQS,0.111
MGETLFKGPRDYNPISSSICHLTNESDGHTTSLYGIGFGPFIITNKHLFRRNNGTLVVQSLHGVFKVKDTTTLQQHLVDGRDMIIIRMPKDFPPFPQKLKFREPQREERICLVTTNFQTKSMSSMVSDTSCTFPSGDGIFWKHWIQTKDGQCGSPLVSTRDGFIVGIHSASNFTNTNNYFTSVPKNFMELLTNQEAQQWVSGWRLNADSVLWGGHKVFMVKPEEPFQPVKEATQL [S4T],area with substrate ECLYFQS,0.142
same,area with substrate EELYFQS,0.133
same,area with substrate EILYFQS,0.128
same,area with substrate EMLYFQS,0.124
same,area with substrate EPLYFQS,0.141
same,area with substrate EQLYFQS,0.149
same,area with substrate ERLYFQS,0.155
same,area with substrate ESLYFQS,0.143
same,area with substrate ETLYFQS,0.0926
same,area with substrate EVLYFQS,0.117
MGEWLFKGPRDYNPISSSICHLTNESDGHTTSLYGIGFGPFIITNKHLFRRNNGTLVVQSLHGVFKVKDTTTLQQHLVDGRDMIIIRMPKDFPPFPQKLKFREPQREERICLVTTNFQTKSMSSMVSDTSCTFPSGDGIFWKHWIQTKDGQCGSPLVSTRDGFIVGIHSASNFTNTNNYFTSVPKNFMELLTNQEAQQWVSGWRLNADSVLWGGHKVFMVKPEEPFQPVKEATQL [S4W],area with substrate ECLYFQS,0.0971
same,area with substrate EDLYFQS,0.092
same,area with substrate EELYFQS,0.087
same,area with substrate EFLYFQS,0.0834
same,area with substrate EGLYFQS,0.0845
same,area with substrate EILYFQS,0.073
same,area with substrate EKLYFQS,0.107
same,area with substrate ELLYFQS,0.106
same,area with substrate EMLYFQS,0.0769
same,area with substrate EQLYFQS,0.15
same,area with substrate ERLYFQS,0.106
same,area with substrate ESLYFQS,0.0781
same,area with substrate ETLYFQS,0.113
same,area with substrate EWLYFQS,0.0665
MGESLFKGPRDYNDISSSICHLTNESDGHTTSLYGIGFGPFIITNKHLFRRNNGTLVVQSLHGVFKVKDTTTLQQHLVDGRDMIIIRMPKDFPPFPQKLKFREPQREERICLVTTNFQTKSMSSMVSDTSCTFPSGDGIFWKHWIQTKDGQCGSPLVSTRDGFIVGIHSASNFTNTNNYFTSVPKNFMELLTNQEAQQWVSGWRLNADSVLWGGHKVFMVKPEEPFQPVKEATQL [P14D],area with substrate ECLYFQS,0.092
same,area with substrate EDLYFQS,0.121
same,area with substrate EELYFQS,0.0508
same,area with substrate EFLYFQS,0.134
same,area with substrate EGLYFQS,0.0974
same,area with substrate EILYFQS,0.0924
same,area with substrate EKLYFQS,0.113
same,area with substrate ELLYFQS,0.105
same,area with substrate EMLYFQS,0.119
same,area with substrate EPLYFQS,0.115
same,area with substrate EQLYFQS,0.119
same,area with substrate ERLYFQS,0.104
same,area with substrate ESLYFQS,0.11
same,area with substrate EVLYFQS,0.0849
same,area with substrate EYLYFQS,0.152
